Test results from PubChem BioAssay (NCI).
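The compound was tested at five concentrations on cells cultured in 96-well plates, with a 48-hour exposure period. Here, GI50 denotes the concentration required for 50% inhibition of growth. TGI denotes the concentration required for complete inhibition of growth.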

system: NCI-H322M lung; test: inhibition of tumour cell growth, NCI panel, 48 h

Compound | GI50 | TGI
c1csc(-c2c3ccc(=[N+]4CCCCC4)cc-3oc3cc(N4CCCCC4)ccc23)c1 | 0.0366 µM | 0.162 µM
COC(=O)c1cc(/C=C/c2ccc(S(N)(=O)=O)cc2)ccc1O | 74.1 µM | > 100 µM
O=C(Nc1ccc(Cl)c(Cl)c1)Nc1ccccc1O | 14.7 µM | 52.4 µM
O=C(OCc1ccccc1)C(Cc1ccccc1)N(Cc1ccccc1)Cc1ccccc1 (stereo unspecified) |  | > 100 µM
O=S1(=O)OCCOS(=O)(=O)C1Cl |  | > 100 µM
COc1cc2c(c(O)c1O)-c1ccc(OC)c(=O)cc1C(NC(C)=O)CC2 (stereo unspecified) |  | > 87.1 µM
C/C(=N\NC(=S)N1CC2CCC(CC2)C1)c1ccccn1 | 0.0206 µM | 1.38 µM
O=C1C(=O)N(c2cc(Cl)ccc2Cl)C(=O)C(=O)C1c1nc2ccccc2o1 |  | > 100 µM
Cc1cccc(C(C)C)c1NC(=O)C(=O)C(C(=O)c1ccccc1F)C1OC(=O)c2ccccc21 (stereo unspecified) |  | 46.8 µM
COc1cc(OCc2ccc3nc(OC)c(OC)nc3c2)cc(OC)c1OC |  | > 10 µM
Nc1nc(Nc2ccccc2)sc1C(=O)c1c[nH]c2ccccc12 |  | 23.3 µM
NC(=S)N/N=C/c1cc(-c2cccc(N)c2)ccn1 | 1.63 µM | > 23.9 µM
CC1CN1c1c(C(=O)/C=C/c2ccc(Cl)cc2)c(-c2ccccc2)nn(C)c1=O (stereo unspecified) |  | > 10 µM
Cc1cc(C(C)(C)C)cc(Cc2cc(C(C)(C)C)cc(Cc3cc(C(C)(C)C)cc(C)c3O)c2O)c1O |  | 22.8 µM
Oc1ccc(Br)cc1C=Nc1ccc(N=Cc2cc(Br)ccc2O)cc1 |  | > 100 µM
Cc1cc(/N=C/c2ccc(C#N)cc2)n(-c2ccccc2)n1 |  | > 100 µM
CC1=C(C(=O)Nc2ccccc2)C(c2ccc(C3C(C(=O)Nc4ccccc4)=C(C)NC(C)=C3C(=O)Nc3ccccc3)cc2)C(C(=O)Nc2ccccc2)=C(C)N1 |  | 20.2 µM
O=c1n(Cc2ccccc2)c(=O)n2c(=O)n(Cc3ccccc3)c(=O)n12 |  | > 100 µM
CC1=C(c2cc(C(=O)Nc3ccc(Cl)cc3)nc(=S)[nH]2)Sc2ccccc2N1 |  | > 100 µM
CCCCC/C(C=O)=C\c1ccccc1 |  | > 100 µM

Compound | GI50 | TGI
CC1(C)OC2CC(=O)OCC23C1CC(=O)C1(C)C3CCC2(C)C(c3ccoc3)OC(=O)C3OC321 (stereo unspecified) |  | > 125 µM
COc1c(O)c(O)cc2c1-c1ccc(OC)c(=O)cc1C(NC(C)=O)CC2 (stereo unspecified) |  | 49.8 µM
O=c1c2ccccc2nc(-c2ccccc2)n1NC(=S)Nc1ccccc1 |  | > 100 µM
COc1cc(CNc2nc3cc(C(F)(F)F)ccc3nc2-c2ccccc2)cc(OC)c1OC |  | > 100 µM
O=C(N/N=C/c1ccc([N+](=O)[O-])o1)c1ccc(O)cc1 | 8.62 µM | > 100 µM
N#Cc1ccc(OC(=O)Nc2ccc(Cl)c(Cl)c2)cc1 | 6.24 µM | 58.6 µM
CCOC(=O)C(C)c1nc2c(Cl)c3ncccc3cc2[nH]c1=O (stereo unspecified) |  | > 100 µM
COCOc1ccc(C2(O)Oc3cc(OCOC)ccc3C2C)c(O)c1 (stereo unspecified) |  | 32.4 µM
O=C1C(Cl)=C(Nc2ccccc2O)C(=O)N1Cc1ccccc1 | 26.6 µM | 72.6 µM
CO/N=C(/C)c1cccc(Nc2cc(-c3ccccc3)nc3ccc(OC)cc23)c1 | 3.24 µM | 14.7 µM
S=C1SC2=Nc3ccccc3CN2C2=NCCN12 | > 100 µM | > 100 µM
Cc1cc(C)n(-c2nnc3n2N=C(c2ccc(-c4ccccc4)cc2)CS3)n1 | 4.91 µM | > 100 µM
O=C(O)c1ccc2c(c1)CC1(C2)Cc2cc3c(cc2C1=O)CCC3 (stereo unspecified) |  | > 100 µM
CC(C)CCn1nc(N)c2nc3ccccc3nc21 |  | > 100 µM
COC(=O)C1(Cc2ccc3c(c2)CCC3)Cc2cc3c(cc2C1)CCC3 |  | > 100 µM
O=C(NCc1ccc(S(=O)(=O)c2cc(F)cc(F)c2)cc1)c1ccc2nccn2c1 | > 55.3 µM | > 100 µM
C=CCn1c2c(sc1=S)C(S)N=CN2 (stereo unspecified) |  | > 100 µM
COc1cc(C(=O)C/C(CCC(=O)Nc2ccc(Cl)cc2Cl)=N/NC(=O)C(=O)NN)ccc1O |  | > 100 µM
Cc1c2ccncc2c(C)c2c1[nH]c1ccccc12 |  | 2.4 µM
